Test results from PubChem BioAssay AID485294 (National Center for Advancing Translational Sciences (NCATS), 2010).
About 150 (0.041%) of roughly 370,000 compounds were called active. The shares of active, inactive and inconclusive entries below differ from those in the screen. The call rests on the fitted dose curve; in most records, active means well fitted inhibition curve with a large enough effect; inconclusive means small, poorly fitted or top-dose-only effect; inactive means flat fitted curve, though single readings scatter. Potencies of inconclusive entries are left out as doubtful fits.

What follows are compounds tested against Beta-lactamase (Escherichia coli (strain K12)) (UniProt P00811) (assay: qHTS Inhibitors of AmpC Beta-Lactamase (assay with detergent)). Conditions: AmpC hydrolysis of nitrocefin, absorbance 480 nm, 0.01% Triton; series mostly up to 114 µM.
Chain of UniProt P00811 (P00811 whole entry, looked up): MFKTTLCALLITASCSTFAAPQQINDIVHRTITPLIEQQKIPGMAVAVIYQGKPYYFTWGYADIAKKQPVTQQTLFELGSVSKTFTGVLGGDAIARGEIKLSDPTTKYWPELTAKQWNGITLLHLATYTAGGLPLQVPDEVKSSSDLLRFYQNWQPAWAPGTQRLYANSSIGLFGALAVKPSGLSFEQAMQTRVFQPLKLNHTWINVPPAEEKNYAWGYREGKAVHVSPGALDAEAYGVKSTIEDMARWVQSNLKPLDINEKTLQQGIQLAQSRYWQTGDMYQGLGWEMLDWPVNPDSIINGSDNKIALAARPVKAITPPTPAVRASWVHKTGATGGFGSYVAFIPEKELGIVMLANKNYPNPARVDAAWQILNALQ
How it was run: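 AmpC (5.3 nM in the dispensed reagent) in 20 mM phosphate pH 7.0 with 0.01% (detergent screen) or 0.0001% Triton X-100 was preincubated with compounds for 15 min at room temperature. Nitrocefin was then added from an 800 uM solution, and hydrolysis was followed at 480 nm.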
Further: nearly all actives have a fitted effect of over 25% in size.
Potency means the concentration at half of the fitted maximal effect; tags describe the fitted curve by direction and shape.

| Compound | Potency |
| --- | --- |
| COc1cc(/C=C2/SC(=S)N(Cc3ccccc3)C2=O)ccc1O | inactive |
| C/C=C(/C)C(=O)O[C@@H]1c2cc(OC)c(OC)c(OC)c2-c2c(cc3c(c2OC)OCO3)C[C@H](C)[C@]1(C)O | inactive |
| Cc1ccc(OCCC(=O)OCC(=O)c2ccc3c(c2)NC(=O)CO3)cc1 | inconclusive [inhibitor, partial curve, poor fit] |
| CCCCNC(=O)N1CCC(CCC(=O)N(C)Cc2ccccc2)CC1 | inconclusive [inhibitor, full curve] |
| C/C(O)=c1/c(=O)nc2cccc3c2=c1c1ccccc1c3=O | inactive |
| Cc1cc(C)cc(OCC(=O)NN2C(=O)c3ccccc3C2=O)c1 | inconclusive [inhibitor, full curve, poor fit] |
| COc1ccc(-c2noc3c2-c2nc(-c4ccc(Cl)cc4)sc2CC3)cc1 | inactive |
| Cc1cccc([C@@H]2[C@@H]3C(=O)N(Cc4ccccc4)C(=O)[C@@H]3[C@]3(Cc4ccc(Cl)cc4)C(=O)N(c4ccccc4)C(=O)N23)c1 | inactive |
| CC1CC(C)(C)CC2(C1)NC(=O)N(CC(=O)Nc1nccs1)C2=O (stereo unspecified) | inconclusive [inhibitor, partial curve, poor fit] |
| COc1ccc2nc(N=Nc3ccc(O)c4ccccc34)sc2c1 | inconclusive [inhibitor, full curve, poor fit] |
| N#CC(C(N)=O)=C1CCC2(CC1)OCCCCO2 | inconclusive [inhibitor, full curve, poor fit] |
| Cc1cccc(-n2cc(-c3ccc([N+](=O)[O-])cc3)[nH]c2=S)c1 | inactive |
| O=C(c1ccccc1F)N1CCN=C1SCc1cccnc1 | inconclusive [inhibitor, full curve, poor fit] |
| Cc1ccc(S(=O)(=O)c2nc(-c3ccccc3)oc2N2CCCC2)cc1 | inactive |
| CCOC(=O)COc1ccccc1/C=C\[N+](=O)[O-] | inconclusive [inhibitor, full curve, poor fit] |
| COc1ccc(CCNC(=O)c2cc(-c3ccccc3O)n[nH]2)cc1OC | inconclusive [inhibitor, partial curve, poor fit] |
| O=C(CCc1ccc(O)cc1)N1C[C@H]2C[C@@H](C1)c1cccc(=O)n1C2 | inconclusive [inhibitor, full curve, poor fit] |
| O=C(CN1CCOCCOCCN(CC(=O)Nc2ccccc2)CCOCC1)Nc1ccccc1 | inconclusive [inhibitor, partial curve] |
| COc1ccc(OC)c(/C=C(\NC(=O)c2ccccc2)C(=O)N/N=C/c2ccc(C)s2)c1 | inconclusive [inhibitor, single point] |
| O=C(CN1CCN(c2nc(-c3ccc(F)cc3)cs2)CC1)NCc1ccc2c(c1)OCO2 | inconclusive [inhibitor, partial curve, poor fit] |
| COc1cccc(C2CC(c3ccccc3)n3ncnc3N2)c1 (stereo unspecified) | inconclusive [inhibitor, full curve] |

| Compound | Potency |
| --- | --- |
| Cc1nc(N2CCCC2)ncc1C(=O)Nc1ccc(OC(F)(F)F)cc1 | inconclusive [inhibitor, single point] |
| Cc1cccc(C(=O)NCCc2csc(C)n2)c1 | inactive |
| CCCC(C)C(=O)Nc1nnc(C)s1 (stereo unspecified) | inconclusive [inhibitor, partial curve, poor fit] |
| O=C(NCc1ccccc1F)c1ccc2c(c1)OCO2 | inconclusive [inhibitor, full curve, poor fit] |
| COc1ccc(-c2oc3ncn4nc(-c5ccccc5OC)nc4c3c2-c2ccc(OC)cc2)cc1 | inactive |
| C=CCC1(CC=C)CCCN1C(=O)c1cc(COc2cncc(Cl)c2)on1 | inactive |
| CC(C)(C(=O)O)c1ccc([C@H](O)CCCN2CCC(C(O)(c3ccccc3)c3ccccc3)CC2)cc1 | inconclusive [inhibitor, partial curve, poor fit] |
| COC(=O)C1=C(C)NC(=O)/C1=C\c1cccs1 | inconclusive [inhibitor, full curve] |
| CC(=O)OC(C(=O)NCCc1ccccc1)c1cccnc1 (stereo unspecified) | inconclusive [inhibitor, full curve, poor fit] |
| CCC(C)n1c(SCC(=O)Nc2ccc3[nH]c(=O)[nH]c3c2)nc2ccccc2c1=O (stereo unspecified) | inconclusive [inhibitor, full curve, poor fit] |
| Cc1cc(NC(=O)c2cccc(S(=O)(=O)N3CCOCC3)c2)c2ccccc2n1 | inconclusive [inhibitor, partial curve, poor fit] |
| COC(=O)C1=C(C)NC(C)=C(C(=O)OC)C1C(=O)OCC(=O)N1CCCCC1C (stereo unspecified) | inconclusive [inhibitor, partial curve] |
| O=C(Cn1cc2c(n1)CCCCC2)NCCN1CCOCC1 | inconclusive [inhibitor, full curve] |
| CCOC(=O)C1=C(C)N=C2c3ccccc3C(=O)C2C1c1ccc(C)cc1 (stereo unspecified) | inconclusive [inhibitor, full curve] |
| CN(C(=O)COc1ccccc1)c1nnc(C23CC4CC(CC(C4)C2)C3)s1 | inconclusive [inhibitor, partial curve, poor fit] |
| O=C(NCCc1ccccc1)C(=O)NCC(c1ccco1)N1CCOCC1 (stereo unspecified) | inconclusive [inhibitor, partial curve] |
| CCNC(=O)NCc1c(C)c(C)n(Cc2ccccc2)c1-n1cccc1 | inconclusive [inhibitor, full curve, poor fit] |
| CCN(CCCNC(=O)CNC(=O)c1nn(-c2ccc(OC)c(OC)c2)c(=O)c2ccccc12)c1ccccc1 | inactive |
| COc1ccc(-c2cn3cccnc3n2)cc1NC(=O)c1ccccc1C(F)(F)F | inactive |
| COc1ccccc1CNC(=O)[C@H](C)NC(=O)C1CCN(C(=O)[C@@H](N)C(C)C)CC1 | inconclusive [inhibitor, partial curve, poor fit] |
